Data published in PubChem BioAssay AID686978 (National Center for Advancing Translational Sciences (NCATS), 2013).
About 64,000 (15%) of roughly 420,000 compounds were called active. The inconclusive results got no clear call from the source; some entries with a clear call stand among them for comparison. The call rests on the fitted dose curve; in most records, active means well fitted inhibition curve with a large enough effect; inconclusive means small, poorly fitted or top-dose-only effect; inactive means flat fitted curve, though single readings scatter. Potencies of inconclusive entries are left out as doubtful fits.

assay: qHTS for Inhibitors of human tyrosyl-DNA phosphodiesterase 1 (TDP1): qHTS in cells in absence of CPT; details: DT40 Tdp1-/- hTDP1 cells, no CPT, ATP luminescence, 48 h; activity change, negative = growth inhibition: at 46.2 µM (top of the series) unless noted; further: nearly all actives have a fitted effect of over 55% in size
Procedure, shortened: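 Growth of hTDP1-complemented DT40 Tdp1-knockout cells is measured by ATP luminescence after at least 48 hr compound exposure at 37 °C, with DMSO substituting for the 20 nM CPT used in the parallel screen.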
On the % scale 0 is the no-effect control and ±100 the full control effect; potency means the concentration at half of the fitted maximal effect; tags describe the fitted curve by direction and shape.

SMILES | Potency | activity change, negative = growth inhibition
Cc1ccc(NC(=O)CCC(=O)N2CCC(c3ccccc3)=N2)cc1S(=O)(=O)N1CCCCC1 | inconclusive [inhibitor, single point] | 
CC1(Cc2c(Cl)cccc2Cl)C(=O)Nc2cc(-c3ccccc3Cl)ccc21 (stereo not given) | inconclusive [inhibitor, single point] | 
Cc1ccc2c(c1)N(C(=O)N1CCC(C(=O)NC3CCCCCC3)CC1)CC(C)O2 (stereo not given) | inconclusive [inhibitor, single point] | 
O=C(c1ccc(CS(=O)Cc2ccccc2Cl)o1)N1CCN(c2cccc(Cl)c2)CC1 (stereo not given) | inconclusive [inhibitor, single point] | 
O=[N+]([O-])c1cccc(-c2nnnn2-c2cccc(F)c2)c1 | inactive | 
CCOC(=O)c1c(C)[nH]c(C(=O)Nc2cc(OCC)c(N3CCOCC3)cc2OCC)c1C | inconclusive [inhibitor, single point] | 
CC(C)(C)CN1CCNC(=O)C1CC(=O)N1CCC(C(=O)N2CCOCC2)CC1 (stereo not given) |  | inconclusive: -13.7% [inhibitor]
COc1ccc(N(Cc2ccco2)C(=O)c2ccccc2F)cc1OC | inconclusive [inhibitor, single point] | 
COc1ccc2[nH]c(=O)c(CN(Cc3ccc(C)cc3)Cc3nnnn3CC3CCCO3)cc2c1 (stereo not given) | inconclusive [inhibitor, single point] | 
CN(c1ncnc(N)c1[N+](=O)[O-])C1CCS(=O)(=O)C1 (stereo not given) | inconclusive [inhibitor, full curve] | 
CCOc1ccc(NC(=O)CCS(=O)(=O)c2cccc3nonc23)cc1 | inactive | 
O=S(=O)(c1cccc(-c2csc(-c3cccnc3)n2)c1)N1CCOCC1 | inconclusive [inhibitor, single point] | 
Cc1ccc(-n2ncc3c(N4CCN(C)CC4)ncnc32)cc1Cl | active: 20.6 µM | 
COc1ccc(C2N(S(=O)(=O)c3ccccc3)CCN2S(=O)(=O)c2ccc(C)cc2)cc1 (stereo not given) | active: 14.1 µM | 
CC(=O)c1ccc(OCCCN2CCCCC2)cc1 | inactive | 
CNC(=O)c1ccc(Nc2nnc(-c3ccc(C)c(S(=O)(=O)N4CCCCC4)c3)c3ccccc23)cc1 | inactive | 
Cc1nc2ccccn2c1C(=O)NN=C1C2CC3CC(C2)CC1C3 | inactive | 
CCc1nn(CC(=O)N2CCN(c3ccc(F)cc3)CC2)c(=O)c2cc3occc3n12 | inactive | 
COc1ccc(-c2nn(-c3ccccc3)cc2CNC[C@H]2O[C@@H](n3ccc(=O)[nH]c3=O)[C@H](O)[C@@H]2O)cc1 |  | inconclusive: -34.6% [inhibitor]
O=C(Nc1ccc(F)c(S(=O)(=O)N2CCOCC2)c1)C1CCCCC1 | inconclusive [inhibitor, single point] | 
Cc1cc(C)cc(OCc2ccc(C(=O)Nc3ccccc3F)o2)c1 | inconclusive [inhibitor, single point] | 
CCOc1ccc(C2C(C(=O)OC)=CN(CCOC)C=C2C(=O)OC)cc1 | inconclusive [inhibitor, full curve] | 
Cn1ncc2c(Nc3cccc([N+](=O)[O-])c3)ncnc21 | inconclusive [inhibitor, partial curve] | 
NCCCCCc1nnc(SCC(=O)c2ccc(Cl)cc2)o1 | inconclusive [inhibitor, single point] | 

SMILES | Potency | activity change, negative = growth inhibition
O=c1[nH]c(C2CCCN(S(=O)(=O)c3cccc(Cl)c3)C2)nc2c1nnn2Cc1ccc2c(c1)OCCO2 (stereo not given) | inconclusive [inhibitor, single point] | 
COC(=O)c1c(NC(=O)c2cccs2)sc2c1CCC(C)C2 (stereo not given) | inconclusive [inhibitor, single point] | 
CCc1cccc(NC(=O)CSc2ncccc2C(=O)Oc2ccccc2Cl)c1 | inactive | 
N#CC1c2ccccc2C=CN1C(=O)c1ccccc1 (stereo not given) | inconclusive [inhibitor, full curve, poor fit] | 
CNC(=O)c1c[nH]c2ccc(S(=O)(=O)Nc3cccc(Cl)c3C)cc2c1=O | inconclusive [inhibitor, single point] | 
Cc1cccc(C)c1-n1nnnc1SCC(=O)N1CCNC1=O | inactive | 
CC(C)Oc1ccc(S(=O)(=O)N2CCOCC2)cc1NC(=O)CCCSc1ccccc1 | inconclusive [inhibitor, single point] | 
CCC(C)NC(=O)CSc1nnc(-c2ccc(Cl)cc2)n1N (stereo not given) | inactive | 
O=C1C=C(c2ccc(F)cc2OCc2ccccc2)C[C@@H](c2ccc3c(c2)OCO3)C1 | inconclusive [inhibitor, single point] | 
CC(C)CN1C(=O)c2ccc(NC(=O)c3ccccc3F)cc2C1=O | inactive | 
CCOc1ccc(C(=O)N[C@H](C(=O)NNC(=O)c2cccs2)C(C)C)cc1 | inactive | 
COc1ccc2cc(-c3cc(C(=O)OCC(=O)NC4CCS(=O)(=O)C4)c4ccccc4n3)ccc2c1 (stereo not given) | inconclusive [inhibitor, single point] | 
CCOc1ccc(CCNC(=O)COC(=O)c2[nH]c(C)c(C(C)=O)c2C)cc1OCC | active: 20.6 µM | 
COc1cc2nc(N3CCCCC3)nc(NC3CCN(Cc4ccccc4)CC3)c2cc1OC | active: 3.16 µM | 
Cc1c(C(=O)OCC(=O)N(CCC#N)c2ccccc2)oc2c1ccc1ccccc12 | inconclusive [inhibitor, single point] | 
CCn1nc(C(=O)NCC(c2cccs2)N2CCOCC2)c2ccccc2c1=O (stereo not given) | active: 20.6 µM | 
CCOC(=O)c1c[nH]c2cc(OCC(C)C)c(OCC(C)C)cc2c1=O | inactive | 
COc1cccc(NC(=O)C2CC2(c2cccc(OC)c2)c2cccc(OC)c2)c1 (stereo not given) | inconclusive [inhibitor, single point] | 
O=C(NCc1nnnn1-c1ccc(F)cc1)c1ccc([N+](=O)[O-])o1 | inconclusive [inhibitor, single point] | 
COc1ccccc1N(C)S(=O)(=O)c1ccc(Cl)c(C(=O)Nc2cccc(C)n2)c1 | active: 16.4 µM | 
CC1(C)CCN2CCC(C)(C)c3c(O)ccc1c32 | active: 3.66 µM | 
O=C(N/N=C/c1cc(Br)ccc1O)Nc1ccccc1 | inconclusive [inhibitor, single point] | 
CC(=O)Nc1ccc(NC(=S)Nc2ccc(Br)cc2)cc1 | inactive | 
Cn1nc(C2CC2)cc1NC(=O)C1(C)CCN1C(=O)c1ccccc1CCc1ccccc1 (stereo not given) | active: 16.4 µM | 

SMILES | Potency | activity change, negative = growth inhibition
CC(=O)c1c(N2CCOCC2)nc2ccc(Br)cc2c1-c1ccccc1 | inconclusive [inhibitor, partial curve] | 
O=C(NC1CCCC1)C(c1ccc(N2CCOCC2)cc1)N(C(=O)c1ccco1)c1ccccc1F (stereo not given) | inactive | 
CSCc1ccc(C(=O)NC(C)c2cnn(-c3ccccn3)c2C)o1 (stereo not given) | inactive | 
CCCC(=O)C1=C(O)C(C(=O)OC)C(C)(C)CC1=Nc1ccccc1 (stereo not given) | inconclusive [inhibitor, partial curve] | 
Cn1c(=O)[nH]c(=O)c2c1nc(CN1CCN(c3cccc(Cl)c3)CC1)n2CCN1CCOCC1 | inconclusive [inhibitor, partial curve] | 
CCN1C(=O)[C@@H]2[C@@H](c3ccc(-c4ccc(C(C)=O)cc4)c(OC)c3)N3CCC[C@@]3(C(=O)OC)[C@@H]2C1=O | inconclusive [inhibitor, single point] | 
COc1ccccc1-c1noc2c1C(=O)N(Cc1cn(-c3ccccc3)nn1)CC2 | inconclusive [inhibitor, single point] | 
COC(=O)c1c(-c2cccs2)csc1NC(=O)CSc1ncnc2sc(C)c(C)c12 | active: 20.6 µM | 
CC(C)n1c(SCC(=O)Nc2ccc(F)cc2)nc2c(oc3ccccc32)c1=O | inconclusive [inhibitor, single point] | 
CCCNC(=O)C1(C)CCCN(CCOc2ccccc2)C1 (stereo not given) | inconclusive [inhibitor, single point] | 
CCCc1cc(C(=O)N2CCN(c3ccccc3C)CC2)cs1 | inconclusive [inhibitor, partial curve] | 
CC(C)(C)NC(=S)NCCc1ccccc1 | inactive | 
COc1ccccc1N1CCN(C(=O)COc2cccc3ccccc23)CC1 | inconclusive [inhibitor, single point] | 
CNC(=S)N(Cc1cc2cc(OC)c(OC)cc2[nH]c1=O)C1CCCC1 | inactive | 
CC(C)C(=O)Nc1ccc(-c2nc3ncccc3o2)cc1 | inconclusive [inhibitor, single point] | 
Cc1nc2cc(NC(=O)COc3ccccc3C#N)ccc2n1-c1ccccc1 | inconclusive [inhibitor, single point] | 
CC(C)C12CN3CC(C(C)C)(CN(C1)C3c1ccc(OCc3ccccc3)cc1)C2=O (stereo not given) | inactive | 
CCCCn1c(-c2cc(Cl)ccc2OC)n[nH]c1=S | inactive | 
CC1CCCN(Cc2c(C(=O)N3CCc4ccccc4C3)nc3ccc(Cl)cn23)C1 (stereo not given) | inconclusive [inhibitor, partial curve] | 
CN(C)CCNC(=O)Nc1cccc(Cl)c1Cl | inactive | 
COc1cc(Br)c(C(C)NC(=O)c2ccc(C)cc2)cc1OC (stereo not given) | inconclusive [inhibitor, single point] | 
C[C@@H]1CN([C@@H](C)CO)C(=O)c2cc(NS(C)(=O)=O)ccc2O[C@@H](C)CCCCO[C@H]1CN(C)C(=O)Nc1ccc2c(c1)OCO2 | inconclusive [inhibitor, single point] | 
